24 compounds from paper PMC4336329 (PLoS ONE, 2015) can be followed below.

The structures appear in SMILES notation. The whole screen tested about 310,000 compounds, of which about 14,000 (4.5%) showed an effect of 50% or more. The effect is printed as a negative number. Some of the results follow.
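Further: peak tail current of the secondary pulse compared with the same well before compound.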

Sequence of human ether-à-go-go-related gene (hERG) potassium channel (Q12809 whole entry, looked up): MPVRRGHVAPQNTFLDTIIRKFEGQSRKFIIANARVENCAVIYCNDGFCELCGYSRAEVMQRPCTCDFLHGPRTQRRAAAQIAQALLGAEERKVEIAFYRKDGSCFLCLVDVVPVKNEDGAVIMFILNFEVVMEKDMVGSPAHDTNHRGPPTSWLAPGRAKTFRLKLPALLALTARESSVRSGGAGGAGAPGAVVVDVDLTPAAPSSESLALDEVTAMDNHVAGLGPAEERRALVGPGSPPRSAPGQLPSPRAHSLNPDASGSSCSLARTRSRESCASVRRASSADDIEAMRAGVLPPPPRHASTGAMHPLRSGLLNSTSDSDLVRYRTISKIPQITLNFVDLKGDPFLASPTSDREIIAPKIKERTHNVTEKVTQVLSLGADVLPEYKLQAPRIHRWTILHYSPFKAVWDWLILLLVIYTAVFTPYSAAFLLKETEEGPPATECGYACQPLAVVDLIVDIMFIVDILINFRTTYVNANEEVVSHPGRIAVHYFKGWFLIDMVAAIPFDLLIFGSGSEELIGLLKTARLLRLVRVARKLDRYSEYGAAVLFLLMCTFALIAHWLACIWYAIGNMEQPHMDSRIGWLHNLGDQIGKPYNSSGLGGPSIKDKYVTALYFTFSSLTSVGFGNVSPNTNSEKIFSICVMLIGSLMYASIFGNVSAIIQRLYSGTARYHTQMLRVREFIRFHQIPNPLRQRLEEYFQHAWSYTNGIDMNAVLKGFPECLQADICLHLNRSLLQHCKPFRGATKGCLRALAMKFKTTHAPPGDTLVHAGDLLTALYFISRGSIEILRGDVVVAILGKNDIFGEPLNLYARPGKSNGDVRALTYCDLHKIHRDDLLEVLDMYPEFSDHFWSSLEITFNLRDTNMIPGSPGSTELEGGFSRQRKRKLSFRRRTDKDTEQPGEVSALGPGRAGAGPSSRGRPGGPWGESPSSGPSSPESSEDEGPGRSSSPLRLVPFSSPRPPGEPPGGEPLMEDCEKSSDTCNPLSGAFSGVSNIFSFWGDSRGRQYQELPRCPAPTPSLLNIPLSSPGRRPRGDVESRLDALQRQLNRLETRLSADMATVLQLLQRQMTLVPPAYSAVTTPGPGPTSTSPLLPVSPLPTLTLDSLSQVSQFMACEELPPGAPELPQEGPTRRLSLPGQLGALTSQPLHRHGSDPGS

The assay concerns the target human ether-à-go-go-related gene (hERG) potassium channel (human, UniProt Q12809). The assay is described as follows: primary screen, population patch clamp on CHO cells stably expressing hERG.
`CN1C(C(=O)NCc2ccco2)CC2Cn3c(nc4cc5ccccc5cc43)C21` (stereo not drawn): the “hERG current change (%, negative = inhibition) at 10uM” value is -38.6%. In the case of `CCS(=O)(=O)c1ccc2oc(SCC(=O)Nc3ccc(OC)c(OC)c3)nc2c1`, the “hERG current change (%, negative = inhibition) at 10uM” value is reported as 9.94%. Regarding `COc1ccc(-c2cn[nH]c2-c2ccc(OCC(=O)NN)cc2O)cc1OC`, the “hERG current change (%, negative = inhibition) at 10uM” value came out at 18.3%. In the case of `COCC(=O)Nc1sc2c(c1C(=O)OC)CCC(C)C2` (stereo not drawn), the “hERG current change (%, negative = inhibition) at 10uM” value is -11.8%. Consider `CCOc1cc2[nH]c(=S)n(C3CCN(Cc4ccccc4)CC3)c(=O)c2cc1OCC`, for which the “hERG current change (%, negative = inhibition) at 10uM” value was found to be 17.6%. As for `COc1ccc(C(=O)N2CC(=O)Nc3ccccc32)cc1S(=O)(=O)N1CCCC1`, the “hERG current change (%, negative = inhibition) at 10uM” value came out at 13%. Take `Cc1cccc(C(=O)NC2C(=O)NNC2c2ccc(Cl)cc2)c1` (stereo not drawn): the “hERG current change (%, negative = inhibition) at 10uM” value is -18.9%. In the case of `O=C(Nc1ccccc1N1CCOCC1)c1cc2ccccc2o1` it was 24.1%; in that of `NS(=O)(=O)c1ccc(CNS(=O)(=O)c2cc(Cl)ccc2Cl)cc1`, 4.52%. Consider `CCOc1ccc(N=C2C(=O)Nc3ccc(C)c(Br)c32)cc1`, for which the “hERG current change (%, negative = inhibition) at 10uM” value amounted to 17.7%. `CCOC(=O)C1=C(c2ccccc2)NC(=O)N(C(C)=O)C1c1cccc([N+](=O)[O-])c1` (stereo not drawn): the “hERG current change (%, negative = inhibition) at 10uM” value is -13.8%. For the compound `CCOC(=O)N1CCC(NCCNC(=O)c2ccc(Cl)cc2)CC1`, the “hERG current change (%, negative = inhibition) at 10uM” value was -57.8%. For the compound `CCN1CCc2c(sc(NC(=O)c3ccc(S(=O)(=O)N4CCCC4)cc3)c2C(=O)NC)C1`, the “hERG current change (%, negative = inhibition) at 10uM” value is reported as -21.7%. Regarding `COc1cccc(-n2c(SCC(=O)NCC3CCCO3)nc3c([nH]c4ccccc43)c2=O)c1` (stereo not drawn), the “hERG current change (%, negative = inhibition) at 10uM” value is -22.5%. `Cc1ccc(C(=O)N2CCN(S(=O)(=O)c3ccccc3)CC2)cc1`: the “hERG current change (%, negative = inhibition) at 10uM” value was 8.16%.

With `O=[N+]([O-])c1cccc(NC(=S)N2CCCC2)c1`, the “hERG current change (%, negative = inhibition) at 10uM” value was 7.59%.

In the case of `COc1ccc(-n2nc([N+](=O)[O-])c(=NCCc3cccc(C)c3)n2O)cc1`, the “hERG current change (%, negative = inhibition) at 10uM” value is on record as -0.355%. The value for `COc1cccc(C(=O)C2CCCN(C(=O)c3cccc(C#CC(C)(C)O)c3)C2)c1` (stereo not drawn) was -18%; that for `O=C(NCc1cccc(C(F)(F)F)c1)C1CC(c2ccc(C(F)(F)F)cc2)=NO1` (stereo not drawn) was 24.9%.

As for `CC(C)(C)Nc1nc(N2CCCC2)nc(N2CCCC2)n1`, the “hERG current change (%, negative = inhibition) at 10uM” value is -12.9%. In the case of `Cc1ccc(S(=O)(=O)N2CC(=NO)C2)cc1` it was -3.51%; in that of `O=C(/C=C/c1ccccc1Cl)Nc1ccccc1`, -0.363%.

Turning to `CCCCN(CC)C(=O)C1CCC(=O)N(c2ccc(OC)cc2)C1c1ccc(OC)c(OC)c1` (stereo not drawn), the “hERG current change (%, negative = inhibition) at 10uM” value is recorded as -10.2%.

Take `CC(CN1C(C)CCCC1C)OC(=O)c1cccc(F)c1.Cl` (stereo not drawn): the “hERG current change (%, negative = inhibition) at 10uM” value is listed as -13%.
